108 compounds from PubChem BioAssay AID1240 (Sanford-Burnham Center for Chemical Genomics, 2008) can be followed below.

The campaign covered roughly 50,000 compounds. About 800 (1.6%) showed an effect of 50% or more. The list shows a part of the results.

This assay concerns the target Bcl-2-like protein 10 (Homo sapiens) (UniProt Q9HD36). Kind of assay: TR3 peptide-Bcl-B binding displacers, biochemical primary FP assay, phenotype converters (AID 1240).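 Note: 0% = Bcl-B with tracer peptide and DMSO and 100% = tracer peptide lacking Bcl-B.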 The conditions noted are these: GST-Bcl-B / FITC-TR3 peptide fluorescence polarization; stronger effect = higher value; compound at 3.75 mg/L.
UniProt Q9HD36, sequence (Q9HD36 whole entry, looked up): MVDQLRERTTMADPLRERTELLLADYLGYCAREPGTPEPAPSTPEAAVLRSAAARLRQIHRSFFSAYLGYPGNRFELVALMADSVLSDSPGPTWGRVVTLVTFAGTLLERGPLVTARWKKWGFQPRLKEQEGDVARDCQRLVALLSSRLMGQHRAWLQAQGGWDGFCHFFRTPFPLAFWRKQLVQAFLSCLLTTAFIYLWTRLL
Turning to `CN(C)CCOC(=O)CCN1C(=O)/C(=C/c2c(Cl)cccc2Cl)SC1=S`, the displacement was -16.5%.

`Cc1ccc([N+](=O)[O-])cc1NC(=O)C1CC1(c1ccccc1)c1ccccc1` (stereo not drawn): the displacement was -3.5%.

As to `Cc1ccc(C(=O)Nc2ccc(Br)cc2)cc1S(=O)(=O)Nc1ccc(Cl)cn1`, the displacement was -10.9%.

For `COc1cc2c(cc1C)/C(=N/OC(=O)c1ccc(OC)c([N+](=O)[O-])c1)CCC2`, the displacement was -8.4%.

Take `CCOC(=O)c1ccccc1NCN1C(=O)CSC1=O`: the displacement worked out at 12.4%.

On to `O=C(NC(=S)Nc1cc(Cl)ccc1Cl)c1ccc(Cl)cc1`, for which the displacement was -8%.

In the case of `Cc1ccc(C(=O)NNC(=O)c2cc3ccccc3cc2O)cc1`, the displacement was -23.2%.

Turning to `N#Cc1c(N)nc(SCc2ccccc2)c(C#N)c1-c1cccs1`, the displacement is -10.4%.

For `O=C1NC(=O)/C(=C\c2ccc(Oc3ccc(C(F)(F)F)cc3[N+](=O)[O-])c(Cl)c2)S1`, the displacement turned out to be 5.5%.

With `COc1cc(/C=C2/SC(=S)N(CC(=O)Nc3ccccc3C(=O)O)C2=O)cc(OC)c1OC`, the displacement was 45.9%.

Take `Cc1ccc(NC(=O)C(=O)NCC(O)c2ccccc2)cc1` (stereo not drawn): the displacement turned out to be 6%.

Regarding `O=C(CCCOc1ccc(Cl)cc1Cl)NNC(=O)c1cccc(Br)c1`, the displacement was -5.4%.

In the case of `NC(=O)c1ccc(NC(=O)c2cc3ccccc3o2)cc1`, the displacement is -8.2%.

With `CCN=C(Nc1ccc2c(c1)OCO2)SC1CC(=O)N(c2ccc(Cl)cc2)C1=O` (stereo not drawn), the displacement is -6.4%.

Regarding `Cc1ccc(S(=O)(=O)Nc2cc(S(=O)(=O)c3ccccc3)c(O)c3ccccc23)cc1`, the displacement was found to be 21.9%.

Consider `O=C1NN(c2ccc(I)cc2)C(=O)/C1=C\c1ccccc1O`, for which the displacement was 0.5%.

Take `O=C(Cc1ccccc1)Nc1sc2c(c1C(=O)Nc1ccc(Cl)cc1)CCC2`: the displacement is -6.9%.

For the compound `CCOc1cc2c(C(=O)OC)c(C)oc2cc1Br`, the displacement was found to be 7.1%.

Take `O=C(NNC(=O)c1ccccc1Cl)c1ccc(O)cc1O`: the displacement is 22.6%.

With `Cc1cc2c(cc1C)CN(c1cccc(C(=O)N/N=C/c3ccc(O)c(O)c3)c1)C2`, the displacement amounted to 8.7%.

As to `O=C(Nc1nc(-c2ccccc2)cs1)C1c2ccccc2Oc2ccccc21`, the displacement is -0.6%.

Turning to `CC(Cc1ccccc1)N=Cc1c(O)[nH]c2ccccc12` (stereo not drawn), the displacement is -10%.

Regarding `O=C(Nc1ccc(Sc2ccc([N+](=O)[O-])cc2)cc1)c1cccs1`, the displacement is -7.1%.

Turning to `COC(=O)CN(CCc1ccccc1)S(=O)(=O)c1ccc(OC)c(OC)c1`, the displacement was found to be 1.2%.

As to `CCCOc1cccc(C(=O)Nc2cc(NC(=O)c3cccc(OCCC)c3)cc(C(=O)O)c2)c1`, the displacement stood at 9.2%.

Turning to `CSc1ccccc1NC(=O)c1cc2nc(-c3cccs3)cc(C(F)(F)F)n2n1`, the displacement was -3.3%.

Turning to `CC1=NN(c2ccccc2)C(=O)C1C(C)C[N+](=O)[O-]` (stereo not drawn), the displacement is -9.8%.

In the case of `CC(C)Oc1cc2oc(=O)c3c(c2cc1Cl)CCC3`, the displacement was -6.9%.

In the case of `Cc1ccccc1NCC(=O)N/N=C\c1cc(Cl)ccc1O`, the displacement was -7.7%.

As to `C/C=C/COC(=O)C1=C(C)NC(=O)NC1c1cc(Cl)c(O)c(OC)c1` (stereo not drawn), the displacement is 8.4%.

Regarding `Cc1cc(=O)[nH]c(Nc2nc3ccccc3o2)n1`, the displacement is 10.4%.

For `Cc1cc(Cn2c(C)nc3ccccc32)c(C)cc1Cn1c(C)nc2ccccc21`, the displacement is -10.9%.

On to `O=C1/C(=C\c2ccccc2)SC(=S)N1c1cccc(C(F)(F)F)c1`, for which the displacement is -0.2%.

Turning to `CCN(CC)C(=O)C(NC(=O)c1ccc([N+](=O)[O-])cc1)C12CC3CC(CC(C3)C1)C2` (stereo not drawn), the displacement was 9.8%.

For `COc1ccc(CN2CCN(C3CCN(Cc4ccccc4)CC3)CC2)cc1OCc1ccccc1`, the displacement is -14%.

As for `O=[N+]([O-])c1ccc(CSc2nnc(-c3ccncc3)n2-c2ccccc2)cc1`, the displacement worked out at 1%.

For `CCOc1ccc(NC(=O)CN(Cc2ccccc2)S(=O)(=O)c2ccc(OC)cc2)cc1`, the displacement is -2.4%.

Regarding `CCCOc1cccc(C(=O)Nc2cc(C(=O)OC)cc(C(=O)OC)c2)c1`, the displacement came out at 4%.

For the compound `O=C1C(c2ccccc2)=C(c2ccccc2)C(=O)N1O`, the displacement was 14.8%.

In the case of `Cc1cc(/C=C2\C(=O)NC(=S)N(c3ccccc3)C2=O)c(C)n1-c1cccnc1`, the displacement was found to be 3.9%.

Take `COc1ccc(-n2nc3cc(C)c(NC(=O)c4ccc([N+](=O)[O-])cc4)cc3n2)cc1`: the displacement came to 3%.

`Cn1c(/C=C/c2cccnc2)nc2ccccc2c1=O`: the displacement was 7.6%.

`CCOc1ccc(-c2n[nH]c(=S)n2-c2ccccc2)cc1`: the displacement was -6.1%.

Regarding `Cc1ccccc1S(=O)(=O)NC(=O)C(C)O` (stereo not drawn), the displacement amounted to 1%.

With `O=C(NCCC(c1ccccc1)c1ccccc1)Nc1cc(F)c(F)cc1Cl`, the displacement is -13.5%.

On to `Cn1c2ccc(Br)cc2c2nc3cc4ccccc4cc3nc21`, for which the displacement is -11%.

Consider `COc1ccccc1OC1=NS(=O)(=O)c2cc([N+](=O)[O-])ccc21`, for which the displacement is -6.5%.

As to `O=C(Nc1ccc2ccccc2c1)c1cc([N+](=O)[O-])ccc1Br`, the displacement came to 3%.

As for `O=C(Nc1cccc(F)c1)C1CC(=O)N(c2ccc(Br)cc2)C1` (stereo not drawn), the displacement is -2.4%.

Turning to `COC(=O)CCC(=O)Nc1ccc(C(=O)c2ccccc2)cc1`, the displacement was 0.7%.

Regarding `COc1cccc(/C=C2/SC(N)=NC2=O)c1O`, the displacement was 5.3%.

For the compound `Cc1ccc(C(=O)NC(=S)Nc2c[nH]c(=O)[nH]c2=O)cc1`, the displacement was -8%.

With `Cc1ccc(C(=O)N/C(=C\c2ccc(Cl)cc2)C(=O)NCC(C)C)cc1`, the displacement was 13.4%.

Consider `Cc1cccc(C(=O)Nc2ccc(Cl)cc2C)c1`, for which the displacement amounted to 8%.

`COc1ccccc1/C=C1/SC(=S)N(C(C)C(=O)O)C1=O` (stereo not drawn): the displacement was -1.5%.

For the compound `C/C(C=O)=C\c1ccc(/C=C(C)/C=C2/SC(=S)N(c3ccccc3)C2=O)cc1`, the displacement came out at 19.7%.

With `COc1cc([N+](=O)[O-])ccc1NC(=O)COc1ccc(C)cc1C`, the displacement was 4.4%.

As to `O=C(Nc1ccc(Nc2ccccc2)cc1)c1ccc([N+](=O)[O-])cc1`, the displacement turned out to be 1.6%.

Regarding `CN(C)c1ccc(NC(=O)Nc2ccc(Cl)c(Cl)c2)cc1`, the displacement amounted to 2.6%.

As for `O=C(CCCNc1ccccc1)N/N=C/c1cccnc1`, the displacement is -4.8%.

With `Cc1cccc(NCC(=O)N/N=C\c2c(Br)cc(Br)c(O)c2Br)c1`, the displacement turned out to be 4.7%.

`CCOC(=O)c1sc(NC(=O)C2CCCCC2)nc1C`: the displacement is -3%.

Regarding `CCOc1ccc(C(=O)Nc2ccc(N3CCOCC3)cc2)cc1Cl`, the displacement turned out to be 9.6%.

As to `Oc1ccccc1/C=N/Nc1cc(N2CCOCC2)nc(N2CCOCC2)n1`, the displacement was -7.1%.

In the case of `CCC(C)(c1ccc(C=O)s1)c1ccc(C=O)s1`, the displacement is 12.3%.

In the case of `O=C(Nc1ccccc1C(F)(F)F)c1cncc(Br)c1`, the displacement is 14.9%.

Consider `CC1=NN(C(=O)OC(C)(C)C)C(O)(C(F)(F)F)C1` (stereo not drawn), for which the displacement was 2.7%.

Take `CCCC(=Nc1cccc([N+](=O)[O-])c1)C1=C(O)CC(C)(C)CC1=O`: the displacement is -8.9%.

`CC(=O)C1=C(O)C(=O)N(CCN(C)C)C1c1ccc(Cl)cc1` (stereo not drawn): the displacement was 1.5%.

As to `O=C(NCc1cccnc1)c1cnn2c(C(F)(F)F)cc(-c3ccc4c(c3)OCO4)nc12`, the displacement came to 11.3%.

Consider `COc1ccc(S(=O)(=O)N(CC(=O)Nc2ccc(Cl)cc2Cl)c2ccc(C)cc2)cc1OC`, for which the displacement stood at 6%.

Take `O=C(COc1ccccc1)Nc1ccc(NC(=O)COc2ccccc2)cc1`: the displacement was found to be 1.4%.

In the case of `Cc1cccc(NC(=O)c2ccc3c(c2)OCO3)n1`, the displacement is 7.9%.

For `O=C(c1ccccc1)N1CCN(c2cc(N3CCOCC3)c(F)cc2[N+](=O)[O-])CC1`, the displacement is -6.5%.

In the case of `Cn1c(=O)[nH]c(=O)c2ncn(Cc3ccccc3)c21`, the displacement is -4.8%.

Take `CCOc1ccc(NC(=S)NC(NC(=O)c2cccc(C)c2)C(Cl)(Cl)Cl)cc1` (stereo not drawn): the displacement was -4.9%.

Take `CCCN1CCC(=NNC(=O)c2ccc(Br)o2)CC1`: the displacement was -2.1%.

Regarding `Cc1cccc(NC(=O)CC2Sc3ccc(C(F)(F)F)cc3NC2=O)c1C` (stereo not drawn), the displacement was 2.5%.

For `CC(=O)c1c(C)nc(-c2ccc([N+](=O)[O-])cc2)nc1N`, the displacement was -10.3%.

In the case of `CC(=O)CCc1c(C)c2ccccc2[nH]c1=S`, the displacement was -16.6%.

Take `C=CCN1C(=O)/C(=C\c2cccc(OCC(=O)O)c2)C(=O)NC1=S`: the displacement came to 18.6%.

In the case of `O=C(CSc1nccn1Cc1ccccc1)c1ccc([N+](=O)[O-])cc1`, the displacement came to 2.8%.

As to `Cc1nc(N)sc1C(=O)N/N=C/C=C/c1ccccc1`, the displacement was determined as 48.4%.

`O=C(NC(=S)Nc1ccc(Cl)cc1Cl)c1ccc(Cl)cc1`: the displacement was -8.7%.

For the compound `CC(C)Nc1ncnc2ccc(Br)cc12`, the displacement turned out to be 11.9%.

Turning to `CCCC(=O)N1CCN(c2ccc([N+](=O)[O-])cc2Cl)CC1`, the displacement was -2.9%.

With `C(=N\n1cnnc1)/c1ccc(OCCOc2ccc(C3CCCCC3)cc2)cc1`, the displacement was -7.4%.

Turning to `COc1ccc(OC)c(N(CC(=O)Nc2ccc(Br)cc2)S(C)(=O)=O)c1`, the displacement came out at 10.7%.

On to `COc1ccc(/C=C2/C(=O)NC(=O)N(c3ccc(C(C)C)cc3)C2=O)c(OC)c1`, for which the displacement is -18.1%.

With `O=C1c2cccc3cc(Br)cc(c23)C(=O)N1Nc1ccccc1`, the displacement is -1.2%.

Take `COc1ccccc1NC(=O)C(=O)NCC(C)C`: the displacement was determined as 9.1%.

As to `O=C1c2ccccc2C(=O)N1CCCSc1nnc(-c2cccs2)n1-c1ccccc1`, the displacement stood at 2.4%.

As for `Cc1cc(C)n(-c2cc(-n3nc(C)cc3C)ncn2)n1`, the displacement turned out to be 3.9%.

For `COc1ccc(CN=CC2=C(O)CC(c3ccccc3)CC2=O)cc1` (stereo not drawn), the displacement is -3%.

`c1ccc(CCNc2ccnc3cc4ccccc4cc23)cc1`: the displacement is 3.3%.

For the compound `CC(C)CNC(=O)/C=C/c1ccccc1`, the displacement was -4%.

Take `Cc1ccccc1CNC(=O)c1ccc(N(C)S(=O)(=O)c2ccccc2)cc1`: the displacement worked out at 3.7%.

`COc1ccc(/C(C)=N/OCC(=O)N2CCN(C(c3ccccc3)c3ccccc3)CC2)cc1OC`: the displacement was -6.6%.

Consider `CCOc1ccc(Nc2nc(Nc3ccc(O)cc3)nc(C)c2[N+](=O)[O-])cc1`, for which the displacement is -4%.

For the compound `CC(=O)NC1=NC(=O)/C(=C\c2ccccc2C)S1`, the displacement is -6.5%.

Consider `CC(C)C1=CC23CCC4C(C)(C(=O)O)CCCC4(C)C2CC1C1C(=O)N(c2ccc(O)cc2)C(=O)C13` (stereo not drawn), for which the displacement is -7.4%.

Take `COc1ccc(C2C3C(=O)N(c4ccc([N+](=O)[O-])cc4)C(=O)C3N3CCCN23)cc1` (stereo not drawn): the displacement came to 8.1%.

Consider `O=C(/C=C/c1ccccc1)NC(=S)Nc1cccnc1`, for which the displacement came out at 11.6%.

As to `COC(=O)/C(=C\N(C(C)C)C(C)C)[N+](=O)[O-]`, the displacement was found to be 11.1%.

As to `Cc1ccc(C(=O)O)cc1NC(=O)CCCC(=O)O`, the displacement is -4.1%.

Consider `O=C(Cc1ccccc1)Nc1ccc(Cc2ccncc2)cc1`, for which the displacement is 13.4%.

As for `O=C(CCN1C(=O)S/C(=C/c2ccc(Cl)cc2)C1=O)N1CCOCC1`, the displacement is -7%.

On to `CCOc1cc(/C=N/n2cnnc2)ccc1OCCOc1ccc(Br)cc1`, for which the displacement is 19.3%.
